# Experimental data as given in PubChem BioAssay AID1671193 (National Center for Advancing Translational Sciences (NCATS), 2021).
# Screen size: about 150,000 compounds; about 180 (0.12%) were called active. The inconclusive results got no clear call from the source; some entries with a clear call stand among them for comparison. Calls follow the shape of the dose curve; as a rule, active = well fitted cell-killing curve with a large enough effect; inconclusive = small, poorly fitted or top-dose-only effect, or effect the other way; inactive = flat fitted curve, though single readings scatter. Where the call is inconclusive, the potency comes from a doubtful curve fit.
# Assay: GF-AFC viability counterscreen for inhibitors of alpha-synuclein gene (SNCA) expression; also: nearly all actives have a fitted effect of over 30% in size;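 as to activity change, negative = cytotoxicity: 0% = DMSO-treated cells and -100% = medium-only wells without cells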
# Settings: HEK-293-SNCA-luc viability, GF-AFC fluorescence, 24 h; activity change, negative = cytotoxicity: at 57.1 µM (top of the series) unless noted
# In short: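 Cytotoxicity counterscreen: after 24 h compound treatment of genome-edited SNCA-luciferase HEK-293 cells, live-cell protease substrate GF-AFC read by fluorescence after 30 min; activity scaled between DMSO (0%) and medium-only (-100%), curves Hill-fitted.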
# Potency is read from the fitted curve at half-maximal effect; tags tell the direction and shape of the fitted curve.
SMILES,"activity change, negative = cytotoxicity",Potency
O=C(NCc1ccc(F)cc1)c1nc2cccnc2n(Cc2ccccc2)c1=O,inactive: 0.317%,–
Cn1cc(-c2nc3cnc(N4CCNCC4)nc3n(Cc3ccc(F)cc3)c2=O)c2ccccc21,–,"inconclusive: 25.1 µM [rising, partial curve]"
CCNC(=O)c1ccc(OC2CCN(C(=O)c3ccnn3C)C2)nc1 (stereo unspecified),inactive: 0.178%,–
Cc1cccc(-c2nc3nc(C)cc(NCc4ccccc4Cl)n3n2)c1,–,"inconclusive: 35.5 µM [cytotoxic, single point]"
C[S+](=O)([O-])CCn1ncc2cc(OCc3cccc(-c4ccccc4)c3)ccc21,–,"inconclusive: 11.2 µM [cytotoxic, partial curve, poor fit]"
COc1ccc(CNC(=O)N(C)C2CCc3nn(CC4CC4)c(=O)n3CC2)cc1 (stereo unspecified),–,"inconclusive: 1.78 µM [rising, full curve, poor fit]"
Cc1ccc(Sc2ccc(N3CCC(C(=O)Nc4ccc(C)c(F)c4)CC3)nn2)cc1,–,"inconclusive: 0.316 µM [rising, full curve, poor fit]"
CC(=O)Nc1ccc(S(=O)(=O)N[C@@H]2C=C[C@@H](c3c(C)nn(-c4ccc(C(C)(C)C)cc4)c3C)C2)cc1,inactive: -3.16%,–
CCN1CCN(C(=O)Cn2ncc3c4ccccc4n(Cc4ccccc4)c3c2=O)CC1,–,"inconclusive: 39.8 µM [cytotoxic, single point]"
Cn1cc(CC(=O)N2CCCc3ncc(C(=O)NCc4cccc(F)c4)cc32)c2ccccc21,–,"inconclusive: 31.6 µM [cytotoxic, single point]"
Cc1cc(Nc2ccccc2C)nc(-n2nc(C)cc2C)n1,–,"inconclusive: 1.26 µM [cytotoxic, full curve, poor fit]"
CCCN(CC1CCOC1)S(=O)(=O)c1ccc(F)c(C)c1 (stereo unspecified),–,"inconclusive: 17.8 µM [cytotoxic, partial curve, poor fit]"
COC(=O)N1CCCC1C(=O)N1CCC(c2nc3ccncc3[nH]2)CC1 (stereo unspecified),inactive: -2.54% [at 87.6 µM],–
O=C(NC1CCCCC1)N1CCCC(Cn2c(C3CC3)nc3cccnc32)C1 (stereo unspecified),–,"inconclusive: 7.08 µM [rising, single point]"
COc1cc(-c2nc(-c3c(C)noc3C)cc3c2cc(C)n3CCN(C)C)ccn1,inactive: -9.98% [at 87.6 µM],–
COc1cccc(Nc2ccc3c(n2)C(C)(C(=O)NC(C)C)CN(C)C3)c1 (stereo unspecified),–,"inconclusive: 56.2 µM [cytotoxic, single point]"
CCc1ccc(CNC(=O)CN2CC3CC(C2)[C@H]2CCCC(=O)N2C3)cc1 (stereo partly specified),inactive: 1.39%,–
COC1CN(c2ccc(C)cc2)C12CCN(C(=O)CCc1nc3ccccc3s1)CC2 (stereo unspecified),inactive: 4.46%,–
CCOC(=O)C1CCN(C(=O)c2cn3cc(-c4ccc(C(F)(F)F)cc4)sc3n2)CC1,inactive: 19.4%,–
CCn1c2c(c(=O)n1-c1ccccc1)CCN(C(=O)c1ccc(Oc3ccccc3)cc1)C2,–,"inconclusive: 31.6 µM [cytotoxic, partial curve, poor fit]"
CN1Cc2ccc(Nc3ccccc3)nc2C(C)(C(=O)NCc2ccc3c(c2)OCO3)C1 (stereo unspecified),inactive: -10.4% [at 87.6 µM],–
CCN(Cc1ccccc1)C(=O)Cn1c(=O)n(-c2ccc(F)c(Cl)c2)c(=O)c2sc3ccccc3c21,–,"inconclusive: 0.224 µM [cytotoxic, full curve]"

SMILES,"activity change, negative = cytotoxicity",Potency
CCN1C(=O)CCC2(C(=O)NCCN(C)C3CCCCC3)CCCC=C12 (stereo unspecified),inactive: -5.69%,–
COc1cccc([S+](=O)([O-])N2CCn3ncc(C(=O)Nc4ccc(Cl)cc4Cl)c3C2)c1,–,"inconclusive: 20 µM [cytotoxic, partial curve]"
CCOCCOC1CCN(C(=O)c2ccc3[nH]ccc3c2)CC1,inactive: 9.31% [at 12.5 µM],–
COc1ccc(C(=O)N[C@H]2[C@H](O)[C@H](O)C[C@@H]2c2ccc(C(F)(F)F)cc2)cc1,–,"inconclusive: 20 µM [cytotoxic, partial curve]"
O=C(COc1ccccc1)N1CCC(Oc2cnc3c(ccn3-c3cncnc3)c2)CC1,–,"inconclusive: 39.8 µM [cytotoxic, single point]"
COc1ccc(CN2CC3(CCN(C(=O)Nc4cccc(Cl)c4)CC3)C2=O)cc1,–,"inconclusive: 17.8 µM [cytotoxic, single point]"
O=C(c1ccc(Cl)cc1)N(Cc1ccco1)Cc1ccco1,inactive: 0.391%,–
O=C(O)c1ccc(CN[C@@H]2CO[C@H](CNS(=O)(=O)c3ccccc3)[C@H]2O)cc1,inactive: 0.829% [at 87.6 µM],–
NC(=O)COc1cccc(C(=O)N2CCC3(CC2)OCCCC3O)c1 (stereo unspecified),inactive: -4.31%,–
Cc1ccc(N(C)C(=O)Cn2cnc3onc(-c4ccc(F)cc4)c3c2=O)cc1C,–,"inconclusive: 25.1 µM [cytotoxic, partial curve]"
O=C(NCc1ccccc1)c1nc2c(o1)CCN(Cc1ccc(F)cc1F)CC2,inactive: -8.85% [at 87.6 µM],–
CN(C)c1ncc2nc(-c3cccc(C#N)c3)c(=O)n(C[C@H]3CCCO3)c2n1,–,"inconclusive: 8.91 µM [rising, partial curve]"
COCC(=O)NCc1cc2n(n1)CCCN(Cc1cnn(C)c1C)C2,–,"inconclusive: 1.58 µM [cytotoxic, full curve, poor fit]"
Cc1ccc(CN2c3ccccc3-c3nc(SCC(=O)NCCc4ccccc4)ncc3S2(=O)=O)cc1,–,"inconclusive: 2 µM [cytotoxic, full curve, poor fit]"
CNC(=O)[C@H]1O[C@@H](n2cnc3c(NCc4ccc(I)cc4)nc(Cl)nc32)[C@H](O)[C@@H]1O,–,"inconclusive: 39.8 µM [cytotoxic, single point]"
O=C(Nc1ccc2ncnc(N3CCCCC3)c2c1)c1c(F)cccc1Cl,–,"inconclusive: 39.8 µM [cytotoxic, partial curve, poor fit]"
CCN(Cc1ccccc1)C(=O)C1CCC(CNS(=O)(=O)c2ccc3c(c2)CCCC(=O)N3)CC1 (stereo unspecified),–,"inconclusive: 10 µM [cytotoxic, partial curve, poor fit]"
CCCCc1cc(C[C@H]2CNCC[C@H]2CC(=O)NCc2cccnc2)no1,inactive: 3.94% [at 87.6 µM],–
O=C(Nc1cc(C2CC2)nn1-c1ccccc1)c1ccccc1F,inactive: -22.2% [at 87.6 µM],–
COc1cccc(-c2ccc(C(=O)N3CCC(NC(=O)c4cccc(Cl)c4)CC3)cc2)c1,inactive: 6.58% [at 12.5 µM],–
CCOc1ccc(NC(=O)c2ccc3c(c2)N(C)C2CCCCN2C3=O)cc1 (stereo unspecified),inactive: 6.52% [at 12.5 µM],–
Cc1oc2ccn(Cc3cccc(F)c3)c(=O)c2c1C(=O)NCC1CCCCC1,inactive: 3.26%,–

SMILES,"activity change, negative = cytotoxicity",Potency
CC(C)CCN1CCC2(CC1)CC(=O)N(c1ccccc1)c1ccccc1O2,–,"inconclusive: 28.2 µM [cytotoxic, single point]"
COc1ccccc1NC(=O)c1sc(-c2ccc(Cl)cc2)cc1N,–,"inconclusive: 12.6 µM [rising, partial curve, poor fit]"
COC(=O)C1=C(C)N=C2SC=C(CC(=O)NCC3CCCO3)N2C1c1ccc(C)cc1C (stereo unspecified),–,"inconclusive: 31.6 µM [rising, single point]"
Cc1cc(OCCN(C)C)c(C)c2c1CC[C@@H]([C@H](C)C(=O)NCc1cccs1)C2,–,"inconclusive: 20 µM [cytotoxic, partial curve, poor fit]"
CCOC(=O)c1ccc(NC(=O)c2ccc3c(c2)N(CC)C2CCCN2C3=O)cc1 (stereo unspecified),inactive: -11.3% [at 12.5 µM],–
COc1ccccc1-c1ccc2c(C(=O)N3CCN(c4ncccn4)CC3)nn(C)c2n1,inactive: -15.2%,–
CCOc1cccc(C(=O)Nc2ccc3oc(-c4ccncc4)nc3c2)c1,–,"inconclusive: 28.2 µM [rising, single point]"
NCc1ccc(-c2cc(F)cc(F)c2)cc1,inactive: -7.22% [at 87.6 µM],–
Cc1oc2ccn(Cc3ccccc3F)c(=O)c2c1C(=O)NCCCN1CCCCC1C (stereo unspecified),–,"inconclusive: 28.2 µM [cytotoxic, single point]"
O=C(NC1CCCN(c2cc(-c3ccc(F)cc3)[nH]n2)C1)c1ccccc1 (stereo unspecified),–,"inconclusive: 10 µM [cytotoxic, partial curve]"
O=C(c1cc(-c2ccccc2F)cc2c1OCCN2Cc1cccnc1)N1CCCC1,–,"inconclusive: 22.4 µM [cytotoxic, partial curve]"
CC(NC(=O)c1cccc(C#N)c1)C(=O)N1CCN(c2ccccn2)CC1 (stereo unspecified),inactive: -2.41%,–
COc1cccc(NC(=O)Cn2c(C)ccc(NC(=O)Nc3ccc(C)cc3)c2=O)c1,inactive: -1.37%,–
Cc1ccc(N2C(=O)C(CC(=O)Nc3cccc(F)c3)N(CCc3ccccc3F)C2=O)cc1 (stereo unspecified),–,"inconclusive: 25.1 µM [cytotoxic, single point]"
O=C(c1cccc2[nH]ccc12)N1CC(Oc2ccc(-c3nc(-c4ccccc4)no3)cc2)C1,–,"inconclusive: 10 µM [cytotoxic, partial curve, poor fit]"
Cc1ccc(CNC(=O)c2ccc(Cn3c(SCc4ccc(F)cc4)nc4cccnc43)cc2)o1,–,"inconclusive: 39.8 µM [cytotoxic, single point]"
Cc1ccc(-n2nc(CO)c(C(=O)NCCC(C)C)n2)cc1C,–,"inconclusive: 17.8 µM [rising, partial curve, poor fit]"
C=CCNC(=O)c1ccc(N2CC3CC(C2)[C@H]2CCCC(=O)N2C3)nc1 (stereo partly specified),–,"inconclusive: 2.24 µM [cytotoxic, full curve, poor fit]"
COc1cccc(/C=C/c2nc(C#N)c(NC3CCCCC3)o2)c1,–,"inconclusive: 28.2 µM [rising, single point]"
Cc1cc2c(c(=O)n(-c3ccccc3)c(=O)n2CC(=O)Nc2ccc(F)cc2)n1C,–,"inconclusive: 2.82 µM [cytotoxic, full curve, poor fit]"
CCNC(=O)CN1C(=O)NC(CCc2ccccc2)(C2CCNCC2)C1=O (stereo unspecified),inactive: 11.1%,–
O=C(C1COc2ccccc2O1)N(Cc1cccnc1)c1nc2c(F)cccc2s1 (stereo unspecified),inactive: 0.0219%,–
